Laboratory results from PubChem BioAssay AID1240 (Sanford-Burnham Center for Chemical Genomics, 2008).
The campaign covered roughly 50,000 compounds. About 800 (1.6%) showed an effect of 50% or more. This is one part of the list.

The molecules below were run against Bcl-2-like protein 10 (Homo sapiens) (UniProt Q9HD36) (assay: TR3 peptide-Bcl-B binding displacers, biochemical primary FP assay, phenotype converters (AID 1240;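 note: 0% = Bcl-B with tracer peptide and DMSO and 100% = tracer peptide lacking Bcl-B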)). Details: GST-Bcl-B / FITC-TR3 peptide fluorescence polarization; stronger effect = higher value; compound at 3.75 mg/L.
Sequence of UniProt Q9HD36 (Q9HD36 whole entry, looked up): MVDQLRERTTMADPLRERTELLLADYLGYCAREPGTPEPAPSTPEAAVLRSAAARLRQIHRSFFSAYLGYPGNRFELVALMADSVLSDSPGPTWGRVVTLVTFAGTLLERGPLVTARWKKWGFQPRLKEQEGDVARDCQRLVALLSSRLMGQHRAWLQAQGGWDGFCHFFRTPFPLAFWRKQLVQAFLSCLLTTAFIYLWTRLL

| Structure (SMILES) | displacement [%] |
| --- | --- |
| Fc1ccc(CSc2nnc(-c3ccc(Cl)cc3Cl)o2)cc1 | -7.1 |
| CCOc1ccc(C(=O)Nc2ccccc2C(N)=O)cc1 | -9.4 |
| CCCC(=O)Nc1ccc(NC(=O)c2ccccc2OC)cc1 | 4.4 |
| N/C(Cc1ccc([N+](=O)[O-])cc1)=N\OC(=O)COc1ccc2ccccc2c1 | 10.1 |
| CN(C)CCCNC(=O)Cc1ccc(Cl)cc1 | 0.2 |
| O=C1N=c2ccccc2=C1c1sc(=S)n(CC2CCCO2)c1O (stereo unspecified) | 2.4 |
| CCOc1cc(OCC)cc(C(=O)Nc2cccc(C(F)(F)F)c2)c1 | 12.9 |
| CCN1C(=O)/C(=C\c2ccccc2OCc2cccc3ccccc23)SC1=S | 12.9 |
| COc1ccc(Cl)cc1NC(=O)COc1ccc(Br)cc1C | 5.7 |
| Cc1cc(N2C(=O)NC(=O)/C(=C\c3cn(C)c4ccccc34)C2=O)ccc1Br | 126 |
| COc1ccc(/C=N/NC(=O)c2ccc(Br)o2)c(C(=O)O)c1OC | 4 |
| COc1ccc(CCNC(=O)C2CN(S(=O)(=O)c3ccccc3)CCN2S(=O)(=O)c2ccccc2)cc1OC (stereo unspecified) | -2.8 |
| COc1ccc(-c2nc(-c3ccc(C(=O)O)cc3)[nH]c2-c2ccc(OC)cc2)cc1 | 5.3 |
| O=c1/c(=C/c2ccc([N+](=O)[O-])cc2)c2cccc3cccc1c32 | 27.9 |
| CC(=O)c1cccc(NC(=O)Nc2cccc(Cl)c2)c1 | 19.1 |
| CN(C)C1(C)C(=O)c2ccccc2C1=O | -3.8 |
| O=C(CCNc1ccc(-c2ccccc2)cc1)c1cccs1 | -15.1 |
| N#Cc1c(NC(=O)C2CC3CCC2C3)sc2c1CCCCCC2 (stereo unspecified) | 12.9 |
| Cc1c(C)c2c(C)nn(-c3ccccc3)c2[nH]c1=O | -12 |
| Cc1ccc(C2=NNC(c3ccc(Cl)cc3Cl)S2)cc1 (stereo unspecified) | 5.7 |
| CCC(=O)Nc1c(C)n(C)n(-c2ccccc2)c1=O | 11.9 |
| O=[N+]([O-])c1ccc(CSc2nnc(-c3ccccc3)c(-c3ccccc3)n2)cc1 | -7.4 |
| C=CCc1ccccc1OCCOc1c(I)cc(/C=C2/SC(=S)N(C)C2=O)cc1OC | 3.9 |

| Structure (SMILES) | displacement [%] |
| --- | --- |
| C=CCc1cccc(/C=N/NS(C)(=O)=O)c1O | 10.6 |
| Cc1ccc2ccc(S(=O)(=O)n3nc(C)cc3C)cc2c1 | 11.2 |
| CCOc1ccc(N2C(=O)CC(N3CCN(c4cccc(Cl)c4)CC3)C2=O)cc1 (stereo unspecified) | -0.3 |
| O=C(Nc1ccc(Cl)cc1)N(Cc1cccs1)Cc1cccs1 | 17.1 |
| Cc1ccc(-c2ncnn2-c2ccc(Cl)cc2)cc1 | -6 |
| COCCOC(=O)C1=C(C)NC2=C(C(=O)CC(C)(C)C2)C1c1ccncc1 (stereo unspecified) | 0.8 |
| COc1ccc(NC(=O)c2ccc(CN(c3ccccc3)S(C)(=O)=O)cc2)cc1 | -4.2 |
| COc1ccc(/C=C/C(=O)Nc2nc3ccccc3n2C)cc1 | -9.1 |
| CCOC(=O)C1=C(C)NC(=O)NC1c1ccc(OC)c([N+](=O)[O-])c1 (stereo unspecified) | -10.4 |
| CC(=O)Nc1cc(-c2ccccc2Cl)[nH]n1 | 13.1 |
| COc1ccc(-n2cnc3cc(Nc4nnc(C)c5ccccc45)ccc32)cc1 | 0.8 |
| O=C(Nc1cccc(NC(=O)c2cccc3ccccc23)c1)c1ccc(Cl)cc1Cl | -19.7 |
| O=C1N=c2ccccc2=C1c1sc(Nc2ccc(F)cc2)nc1O | 2.8 |
| CCOc1ccc(/C=C2/Sc3ccccc3C2=O)cc1OCC | 18.3 |
| CC(C)c1ccc(NC(=O)C2CC3CCC2C3)cc1 (stereo unspecified) | -5 |
| CCOc1ccc(NC(=O)C2=C(C)NC(=O)NC2c2ccc(OC)cc2OC)cc1 (stereo unspecified) | 15.4 |
| COc1ccc(NC(=O)c2ccc(Cl)cc2)cc1Cl | 11.9 |
| N/C(=N/OC(=O)c1cccc([N+](=O)[O-])c1)c1nonc1N | -6.2 |
| O=C(Nc1ccc(F)cc1)N1CCc2ccccc21 | 1.4 |
| COc1ccc2c(c1[N+](=O)[O-])CCC/C2=N/OC(=O)c1cccc2ccccc12 | 8.2 |
| O=C(Nc1ccc(Br)cn1)c1ccccc1F | -1.8 |
| Cc1ccccc1OCC(=O)N1CCC(C(N)=O)CC1 | 5.9 |
| COc1cc2c(cc1NC(=O)c1cccc(Br)c1)oc1ccccc12 | -1.1 |

| Structure (SMILES) | displacement [%] |
| --- | --- |
| O=C(O)/C=C/c1cccc(N2C(=O)C=CC2=O)c1 | -11.6 |
| CCc1ccccc1NC(=O)C1COc2ccccc2O1 (stereo unspecified) | -9.6 |
| Cc1ccc(-c2nc3cc(Cl)ccc3o2)cc1NC(=O)c1cccc(Cl)c1Cl | -25.5 |
| Cc1ccc(-c2csc(NC(=O)C34CC5CC(CC(C5)C3)C4)n2)cc1 | 1 |
| COc1cc(/C=N/Nc2ccnc3cc(Cl)ccc23)ccc1O | 19.5 |
| O=C(c1ccc(F)cc1)c1ccc(NS(=O)(=O)c2ccc(Cl)cc2)cc1 | 0.8 |
| O=C(O)c1ccccc1N1C(=O)C2CC=CCC2C1=O (stereo unspecified) | 12.7 |
| CCOc1ccccc1N1CCN(C(=O)C(C)Oc2cccc(Cl)c2)CC1 (stereo unspecified) | 44.6 |
| COc1cc2oc(=O)cc(C)c2cc1C=O | 19.1 |
| COc1ccccc1N1CCN(S(=O)(=O)c2ccc(Br)cc2)CC1 | -6.5 |
| CC1(C)N(O)C(c2ccc[nH]2)N(O)C1(C)C | -8.6 |
| COc1ccc(N2C(=O)/C(=C/c3cn(-c4ccccc4)nc3-c3cccs3)SC2=S)cc1 | 0.4 |
| O=C1CSC(=S)N1/N=C/c1ccc(Br)cc1 | -13.5 |
| COc1ccc(C(=O)N2c3ccc(C)cc3C(Nc3ccc(C)cc3)CC2C)cc1 (stereo unspecified) | 4.2 |
| CCOC(=O)C1=C(C)NC2=C(C(=O)CC(C)(C)C2)C1c1ccc(C)cc1C (stereo unspecified) | -0.8 |
| O=[N+]([O-])c1ccc2c(c1Nc1ccccc1)=NC1(CCCCC1)N=2 | 1.5 |
| CSc1nc(N)c(C#N)c(Cc2ccccc2)c1C#N | 7.2 |
| CCOC(=O)c1ccccc1NC(=O)c1cc(OC)cc(OC)c1 | 13.6 |
| C/C(=N\N=C1\NC(=O)C(CC(=O)Nc2cc(Cl)ccc2Cl)S1)C(C)C (stereo unspecified) | -17.2 |
| CCOC(=O)C1=C(O)/C(=C/c2cc(C)n(-c3ccc(C)c(C)c3)c2C)N=C1C | 20.5 |
| CCN(CC)c1ccc(N2C(=O)/C(=C/c3ccc(OC)c(OC)c3)SC2=S)cc1 | 11.9 |
| CC(/C=C/c1ccccc1)=NNC(=O)c1ccc(Cl)cc1O | 9.5 |
| Cc1cc(-c2nc3ccc(Br)cc3c(=O)o2)ccc1[N+](=O)[O-] | 22.4 |

| Structure (SMILES) | displacement [%] |
| --- | --- |
| CCN(CC)c1ccc(/C=C(\NC(=O)c2ccccc2Cl)C(=O)NN)cc1 | -48.1 |
| COc1cc(OC)c(NC(=O)c2cccc(F)c2)cc1Cl | 8.3 |
| NC(=O)C1CCN(C2CC(=O)N(c3ccc(Cl)cc3)C2=O)CC1 (stereo unspecified) | -1.4 |
| O=C(c1ccc(C#Cc2ccccc2)cc1)N1CCN(c2ccccn2)CC1 | -3.1 |
| COc1cc(N2N=C(c3ccccc3)CC2c2ccccc2)c(C=O)cc1C=O (stereo unspecified) | -1 |
| Cc1ccc2cc(C3=C/C(=C/c4ccc([N+](=O)[O-])o4)C(=O)O3)ccc2c1 | -3.6 |
| O=C(O)CCCC(=O)Nc1ccccc1 | 14.1 |
| COc1cc(/C(C)=N/N2CCN(c3ccccc3OC)CC2)ccc1O | 16.4 |
| CCOc1ccc(NC(=S)NC(=O)/C=C/c2ccc(OC)cc2)c([N+](=O)[O-])c1 | 13.2 |
| O=C(Nc1ccccc1F)C1(c2ccccc2)CC1(Cl)Cl (stereo unspecified) | -3.5 |
| CCOC(=O)C1=C(N)OC(C)=C(C(=O)OC)C1c1cccnc1 (stereo unspecified) | -10.9 |
| COC(=O)c1ccc(NC(=O)c2cccc([N+](=O)[O-])c2C)cc1 | -4.6 |
| COc1cccc(N=C2c3ccc([N+](=O)[O-])cc3C(=O)C2C(C)=O)c1 (stereo unspecified) | 23.1 |
| O=C1C2ON(c3ccc(Cl)cc3)C(c3ccc(F)cc3)C2C(=O)N1c1ccc([N+](=O)[O-])cc1 (stereo unspecified) | -20.3 |
| O=C(N/N=C/C=N/NC(=O)c1cc(Br)ccc1O)c1cc(Br)ccc1O | -0.5 |
| COCC(=O)N/N=C/c1ccc(Sc2ccccn2)o1 | -4.2 |
| CSc1ccc(/C=N/n2c(C)nnc2C)cc1 | -5.2 |
| COc1cc(OC)cc(C(=O)NCC2CCCO2)c1 (stereo unspecified) | -4.7 |
| COc1ccccc1NC(=O)CN(c1ccccc1OC)S(=O)(=O)c1ccccc1 | -8.5 |
| Cc1occc1C(=O)Nc1ccccc1F | 5.2 |
| CCOC(=O)/C(=C/c1c[nH]c2ccccc12)C(C)=O | -9.1 |
| Clc1cc(Cl)c2nc3[nH]c4ccc(Br)cc4c3nc2c1 | 8 |
| CCC(C)NC(=O)CN(c1ccc(OC)cc1)S(=O)(=O)c1ccccc1 (stereo unspecified) | 6.9 |

| Structure (SMILES) | displacement [%] |
| --- | --- |
| CCOc1cccc(N2C(=O)CC(S/C(N)=N/N=C(\C)c3ccc(Cl)s3)C2=O)c1 (stereo unspecified) | -22.7 |
| CC(=O)Nc1ccccc1NS(=O)(=O)c1ccc(Cl)cc1 | 3.3 |
| COCCCNC(=O)CN(c1cc(Cl)ccc1OC)S(=O)(=O)c1ccc(C)c([N+](=O)[O-])c1 | 1.6 |
| CCOc1ccccc1NC(=O)c1c(NC(=O)c2ccccc2F)sc2c1CCC(C)C2 (stereo unspecified) | -6.4 |
| O=C1/C(=C\c2ccccc2)SC(=S)N1CN1CCCCC1 | 6.6 |
| CC(=O)Nc1ccc(S(=O)(=O)NC(C)=O)cc1 | 9 |
| COc1ccc(CCN(C(=S)Nc2ccccc2)C2CC(=O)N(c3ccc(Cl)cc3)C2=O)cc1 (stereo unspecified) | -3.3 |
| Cc1ccc(-n2c(SCC(=O)N3CCOCC3)nc(O)c(Cc3ccccc3)c2=O)cc1 | 3 |
| Cc1ccsc1/C=C(\C#N)c1nc(-c2cccc(Br)c2)cs1 | 95.2 |
| CCc1ccc(NC(=O)COc2cccc(C)c2C)cc1 | -9.3 |
| O=C(Nc1cccnc1)c1cnn2c1NC(c1ccco1)CC2C(F)(F)F (stereo unspecified) | 3.4 |
| CC(C)(C)C1=NN(C(=O)c2ccccc2)C(O)(C(F)(F)F)C1 (stereo unspecified) | 10.3 |
| CC(O)c1cccc(NC(=O)c2cc3n(n2)C(C(F)(F)F)CC(c2ccc(Cl)cc2)N3)c1 (stereo unspecified) | 14.7 |
| O=C(Nc1ccc(Cl)c(-c2nc3ncccc3o2)c1)c1ccccc1 | 3.7 |
| CCOC(=O)COc1ccc(/C=N/NC(=O)COc2ccc([N+](=O)[O-])cc2)c(OCC(=O)OCC)c1 | 8 |
| CCOC(=O)Cn1c(C)cc(COC)c(C#N)c1=O | 2.5 |
| O=c1[nH]c(=O)n(Cc2ccccc2)cc1F | -2.7 |
| C=CCn1c(-c2cccc(Cl)c2)n[nH]c1=S | -18.7 |
| CCn1ccnc1C(O)(c1ccccc1)c1ccc(C)cc1 (stereo unspecified) | -1 |
